# Reference: article PMC7144022, “Quinolinecarboxamides Inhibit the Replication of the Bovine Viral Diarrhea Virus by Targeting a Hot Spot for the Inhibition of Pestivirus Replication in the RNA-Dependent RNA Polymerase” (Molecules, 2020)
# pEC50: −log10 of the molar value.
# System: BVDV-1 (strain NADL)
# Assay: Infectious virus yield in culture supernatant
# Conditions: Bovine viral diarrhea virus isolates and strains, MDBK, read-out: EC50 for inhibition of infectious virus yield in the culture supernatant
row,SMILES,pEC50
1,"O=C(Nc1ccn(-c2ccccc2)n1)c1cc(-c2ccccc2)nc2ccccc12 [TO502-2403, 2-phenyl-N-(1-phenyl-1H-pyrazol-3-yl)-4-Quinolinecarboxamide]",6.70
2,"Cc1ccc2nc(NC(=O)c3cc(-c4ccco4)nc4ccccc34)sc2c1 [TO505-6180, 2-(2-furanyl)-N-(6-methyl-2-benzothiazolyl)-4-Quinolinecarboxamide]",6.22
